# Measurements as given in the supplement of paper PMC8728848.
# Some of the results follow.
# Tests used:
# Assay in all cases: glycan array binding signal (z-score within array); higher = stronger binding
# Conditions in all cases: glycan notation: IUPAC condensed, linker removed
# [1] = target: Neu5Ac(a2-3)Gal(b1-3)GlcNAc(b1-2)Man
# In short: (§1)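 Negative Z-scores can be read as non-binding. The Z-score is calculated within each array and then averaged across arrays of one protein sequence at different concentrations or buffers and across linkers. Arrays, 3228 in all, were curated from the Consortium for Functional Glycomics database and kept only where the protein sequence was available.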
# [2] = target: Neu5Ac(a2-3)Gal(b1-3)GlcNAc(b1-2)Man(a1-3)[GlcNAc(b1-4)][Neu5Ac(a2-3)Gal(b1-3)GlcNAc(b1-2)Man(a1-6)]Man(b1-4)GlcNAc(b1-4)GlcNAc
# In short: as §1
# [3] = target: Neu5Ac(a2-3)Gal(b1-3)GlcNAc(b1-2)Man(a1-3)[Neu5Ac(a2-3)Gal(b1-3)GlcNAc(b1-2)Man(a1-6)]Man(b1-4)GlcNAc(b1-4)GlcNAc
# In short: as §1
# [4] = target: Neu5Ac(a2-3)Gal(b1-3)GlcNAc(b1-3)Gal(b1-3)GlcNAc
# In short: as §1
# [5] = target: Neu5Ac(a2-3)Gal(b1-3)GlcNAc(b1-3)Gal(b1-4)GlcNAc
# In short: as §1
# [6] = target: Neu5Ac(a2-3)Gal(b1-3)GlcNAc(b1-3)GalNAc
# In short: as §1
# [7] = target: Neu5Ac(a2-3)Gal(b1-3)GlcNAc(b1-4)Gal(b1-4)Glc
# In short: as §1
# [8] = target: Neu5Ac(a2-3)Gal(b1-3)GlcNAc(b1-6)GalNAc
# In short: as §1
# [9] = target: Neu5Ac(a2-3)Gal(b1-3)GlcNAc6S
# In short: as §1
# [10] = target: Neu5Ac(a2-3)Gal(b1-3)[Fuc(a1-4)]GlcNAc
# In short: as §1
# [11] = target: Neu5Ac(a2-3)Gal(b1-3)[Fuc(a1-4)]GlcNAc(b1-3)Gal(b1-3)[Fuc(a1-4)]GlcNAc
# In short: as §1
# [12] = target: Neu5Ac(a2-3)Gal(b1-3)[Fuc(a1-4)]GlcNAc(b1-3)Gal(b1-4)[Fuc(a1-3)]GlcNAc
# In short: as §1
# [13] = target: Neu5Ac(a2-3)Gal(b1-3)[GlcNAc(b1-6)]GalNAc
# In short: as §1
# [14] = target: Neu5Ac(a2-3)Gal(b1-3)[Neu5Ac(a2-6)]GalNAc
# In short: as §1
# [15] = target: Neu5Ac(a2-3)Gal(b1-3)[Neu5Ac(a2-6)]GlcNAc(b1-3)[Fuc(a1-3)[Gal(b1-4)]GlcNAc(b1-6)]Gal(b1-4)Glc
# In short: as §1
# [16] = target: Neu5Ac(a2-3)Gal(b1-3)]Neu5Ac(a2-3)Gal(b1-4)]GlcNAc
# In short: as §1
# Neu5Ac(a2-3)Gal(b1-4)Glc = target: Neu5Ac(a2-3)Gal(b1-4)Glc
# In short: as §1
# [17] = target: Neu5Ac(a2-3)Gal(b1-4)GlcNAc
# In short: as §1
# [18] = target: Neu5Ac(a2-3)Gal(b1-4)GlcNAc(b1-2)Man
# In short: as §1
# [19] = target: Neu5Ac(a2-3)Gal(b1-4)GlcNAc(b1-2)Man(a1-3)[GlcNAc(b1-4)][Neu5Ac(a2-3)Gal(b1-4)GlcNAc(b1-2)Man(a1-6)]Man(b1-4)GlcNAc(b1-4)GlcNAc
# In short: as §1
# [20] = target: Neu5Ac(a2-3)Gal(b1-4)GlcNAc(b1-2)Man(a1-3)[Neu5Ac(a2-3)Gal(b1-4)GlcNAc(b1-2)Man(a1-6)]Man(b1-4)GlcNAc(b1-4)GlcNAc
# In short: as §1
# [21] = target: Neu5Ac(a2-3)Gal(b1-4)GlcNAc(b1-2)Man(a1-3)[Neu5Ac(a2-3)Gal(b1-4)GlcNAc(b1-2)Man(a1-6)]Man(b1-4)GlcNAc(b1-4)[Fuc(a1-6)]GlcNAc
# In short: as §1
# [22] = target: Neu5Ac(a2-3)Gal(b1-4)GlcNAc(b1-2)Man(a1-3)[Neu5Ac(a2-6)Gal(b1-4)GlcNAc(b1-2)Man(a1-6)]Man(b1-4)GlcNAc(b1-4)GlcNAc
# In short: as §1
# [23] = target: Neu5Ac(a2-3)Gal(b1-4)GlcNAc(b1-2)[Neu5Ac(a2-3)Gal(b1-4)GlcNAc(b1-4)]Man(a1-3)[GlcNAc(b1-4)][Neu5Ac(a2-3)Gal(b1-4)GlcNAc(b1-2)[Neu5Ac(a2-3)Gal(b1-4)GlcNAc(b1-6)]Man(a1-6)]Man(b1-4)GlcNAc(b1-4)GlcNAc
# In short: as §1
# [24] = target: Neu5Ac(a2-3)Gal(b1-4)GlcNAc(b1-2)[Neu5Ac(a2-3)Gal(b1-4)GlcNAc(b1-4)]Man(a1-3)[GlcNAc(b1-4)][Neu5Ac(a2-3)Gal(b1-4)GlcNAc(b1-4)Man(a1-6)]Man(b1-4)GlcNAc(b1-4)GlcNAc
# In short: as §1
# [25] = target: Neu5Ac(a2-3)Gal(b1-4)GlcNAc(b1-2)[Neu5Ac(a2-3)Gal(b1-4)GlcNAc(b1-6)]Man(a1-6)[Neu5Ac(a2-3)Gal(b1-4)GlcNAc(b1-2)Man(a1-3)]Man(b1-4)GlcNAc(b1-4)GlcNAc
# In short: as §1
# [26] = target: Neu5Ac(a2-3)Gal(b1-4)GlcNAc(b1-2)[Neu5Ac(a2-3)Gal(b1-4)GlcNAc(b1-6)]Man(a1-6)[Neu5Ac(a2-3)Gal(b1-4)GlcNAc(b1-2)Man(a1-3)][GlcNAc(b1-4)]Man(b1-4)GlcNAc(b1-4)GlcNAc
# In short: as §1
# [27] = target: Neu5Ac(a2-3)Gal(b1-4)GlcNAc(b1-3)Gal
# In short: as §1
# [28] = target: Neu5Ac(a2-3)Gal(b1-4)GlcNAc(b1-3)Gal(b1-3)GlcNAc
# In short: as §1
# [29] = target: Neu5Ac(a2-3)Gal(b1-4)GlcNAc(b1-3)Gal(b1-4)GlcNAc
# In short: as §1
# [30] = target: Neu5Ac(a2-3)Gal(b1-4)GlcNAc(b1-3)Gal(b1-4)GlcNAc(b1-2)Man(a1-3)[Neu5Ac(a2-3)Gal(b1-4)GlcNAc(b1-3)Gal(b1-4)GlcNAc(b1-2)Man(a1-6)]Man(b1-4)GlcNAc(b1-4)GlcNAc
# In short: as §1
# [31] = target: Neu5Ac(a2-3)Gal(b1-4)GlcNAc(b1-3)Gal(b1-4)GlcNAc(b1-3)Gal(b1-4)GlcNAc
# In short: as §1
# [32] = target: Neu5Ac(a2-3)Gal(b1-4)GlcNAc(b1-3)Gal(b1-4)GlcNAc(b1-3)Gal(b1-4)GlcNAc(b1-2)Man(a1-3)[Neu5Ac(a2-3)Gal(b1-4)GlcNAc(b1-3)Gal(b1-4)GlcNAc(b1-3)Gal(b1-4)GlcNAc(b1-2)Man(a1-6)]GalNAc
# In short: as §1
# [33] = target: Neu5Ac(a2-3)Gal(b1-4)GlcNAc(b1-3)Gal(b1-4)GlcNAc(b1-3)GalNAc
# In short: as §1
# [34] = target: Neu5Ac(a2-3)Gal(b1-4)GlcNAc(b1-3)Gal(b1-4)GlcNAc(b1-3)[Neu5Ac(a2-3)Gal(b1-4)GlcNAc(b1-3)Gal(b1-4)GlcNAc(b1-6)]GalNAc
# In short: as §1
# [35] = target: Neu5Ac(a2-3)Gal(b1-4)GlcNAc(b1-3)Gal(b1-4)GlcNAc(b1-6)[Gal(b1-3)]GalNAc
# In short: as §1
# [36] = target: Neu5Ac(a2-3)Gal(b1-4)GlcNAc(b1-3)Gal(b1-4)[Fuc(a1-3)]GlcNAc
# In short: as §1
# [37] = target: Neu5Ac(a2-3)Gal(b1-4)GlcNAc(b1-3)GalNAc
# In short: as §1
binder,measurement,setting,value
"SRA-1 (Homo sapiens), P21757 (protein) MEQWDHFHNQQEDTDSCSESVKFDARSMTALLPPNPKNSPSLQEKLKSFKAALIALYLLVFAVLIPLIGIVAAQLLKWETKNCSVSSTNANDITQSLTGKGNDSEEEMRFQEVFMEHMSNMEKRIQHILDMEANLMDTEHFQNFSMTTDQRFNDILLQLSTLFSSVQGHGNAIDEISKSLISLNTTLLDLQLNIENLNGKIQENTFKQQEEISKLEERVYNVSAEIMAMKEEQVHLEQEIKGEVKVLNNITNDLRLKDWEHSQTLRNITLIQGPPGPPGEKGDRGPTGESGPRGFPGPIGPPGLKGDRGAIGFPGSRGLPGYAGRPGNSGPKGQKGEKGSGNTLTPFTKVRLVGGSGPHEGRVEILHSGQWGTICDDRWEVRVGQVVCRSLGYPGVQAVHKAAHFGQGTGPIWLNEVFCFGRESSIEECKIRQWGTRACSHSEDAGVTCTL",glycan array binding signal (z-score),[1],0.294
same,glycan array binding signal (z-score),[2],-0.47
same,glycan array binding signal (z-score),[3],-0.506
same,glycan array binding signal (z-score),[4],-0.135
same,glycan array binding signal (z-score),[5],-0.357
same,glycan array binding signal (z-score),[6],-0.524
same,glycan array binding signal (z-score),[7],-0.334
same,glycan array binding signal (z-score),[8],0.514
same,glycan array binding signal (z-score),[9],0.048
same,glycan array binding signal (z-score),[10],0.216
same,glycan array binding signal (z-score),[11],-0.429
same,glycan array binding signal (z-score),[12],0.765
same,glycan array binding signal (z-score),[13],-0.449
same,glycan array binding signal (z-score),[14],-0.285
same,glycan array binding signal (z-score),[15],-0.33
same,glycan array binding signal (z-score),[16],-0.533
same,glycan array binding signal (z-score),Neu5Ac(a2-3)Gal(b1-4)Glc,-0.031
same,glycan array binding signal (z-score),[17],-0.137
same,glycan array binding signal (z-score),[18],0.757
same,glycan array binding signal (z-score),[19],0.307
same,glycan array binding signal (z-score),[20],-0.559
same,glycan array binding signal (z-score),[21],-0.509
same,glycan array binding signal (z-score),[22],-0.373
same,glycan array binding signal (z-score),[23],0.146
same,glycan array binding signal (z-score),[24],0.157
same,glycan array binding signal (z-score),[25],-0.385
same,glycan array binding signal (z-score),[26],-0.583
same,glycan array binding signal (z-score),[27],0.067
same,glycan array binding signal (z-score),[28],-0.415
same,glycan array binding signal (z-score),[29],0.027
same,glycan array binding signal (z-score),[30],0.214
same,glycan array binding signal (z-score),[31],-0.363
same,glycan array binding signal (z-score),[32],0.52
same,glycan array binding signal (z-score),[33],0.073
same,glycan array binding signal (z-score),[34],0.253
same,glycan array binding signal (z-score),[35],-0.496
same,glycan array binding signal (z-score),[36],0.338
same,glycan array binding signal (z-score),[37],-0.705
